From PubChem BioAssay AID652104 (National Center for Advancing Translational Sciences (NCATS), 2013)
Out of some 410,000 compounds screened, about 7,200 (1.8%) were called active. Inconclusive results, whose numbers are uncertain, are shown with a selection of clear calls. Calls come from the whole dose curve; as a rule, active = well fitted activation curve with a large enough effect; inconclusive = small, poorly fitted or top-dose-only effect, or another doubt; inactive = no such curve, though single readings can be large or run the other way. No potency is given beside an inconclusive call; the fits are too rough.
Potency is the fitted concentration of half-maximal effect; tags give direction and shape of the fitted curve.

Assay: qHTS of TDP-43 Inhibitors; note: nearly all actives have a fitted effect of over 50% in size; for growth rescue (activation): % of control where 0% means no effect
Details: TDP-43 expressing yeast growth rescue, BacTiter-Glo, 24 h; growth rescue (activation): at 46.1 µM (top of the series) unless noted
Summary of the method: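 In this qHTS, compounds that restore growth of yeast expressing TDP-43 appear as activators. Cells (OD600=0.02, galactose medium, raffinose-pregrown) are incubated with compound 24 hr at 30 deg C and growth is quantified by BacTiter-Glo.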
In the case of `CC1(C(=O)O)CCCN(C(=O)C2(c3ccc(Cl)cc3)CCCC2)C1` (stereo not drawn), the Potency is reported as active: 17.8 µM.
For `COc1ccc2c(c1)Cc1sc(NC(=O)c3ccccc3C)nc1-2`, the Potency was inconclusive [activator, partial curve].
For `Cc1ccc(C)c(-n2nnnc2SCC(=O)NCCC2=CCCCC2)c1`, the Potency was inconclusive [activator, partial curve].
With `Cc1ccc(C)c(N2CCN(c3nc4ccccc4c(=O)n3-c3ccc(Cl)cc3)CC2)c1` the “growth rescue (activation)” value was inactive: 1.64%.
In the case of `COc1ccc(SCc2cc(=O)c3ccc(C)c(C)c3[nH]2)cc1`, the “growth rescue (activation)” value is reported as inactive: 16%.
With `CN(Cc1ccccc1)C(=O)c1ccc(Nc2nc(C(N)Cc3ccc(C(F)(F)F)cc3)cs2)nc1` (stereo not drawn) the Potency was inconclusive [activator, partial curve].
In the case of `COc1ccc(/C=C2/C(=O)ON=C2C)cc1Cl`, the growth rescue (activation) is reported as inconclusive: 55.4% [activator].
In the case of `COc1cc(OC)c(NC(=O)CCc2ccccc2)cc1Cl`, the Potency is reported as inconclusive [activator, single point].
For `Cc1cccc(C)c1-n1ncc(C(=O)NCCCN2CCCCC2)c1C1CCN(C(=O)OC(C)(C)C)CC1`, the Potency was inconclusive [activator, partial curve].
For `CS(=O)(=O)c1ccc(C(=O)Nc2ccc(N3CCCCC3)cc2)c(Cl)c1`, the Potency was inconclusive [activator, full curve].
For `O=C(O)c1cccc2c1C(=O)c1cc([N+](=O)[O-])ccc1-2`, the “growth rescue (activation)” value was inactive: 11.2%.
For `O=C(NC1CCCCC1)C(c1ccncc1)n1c(=O)c(-c2cc3ccccc3[nH]2)nc2ccccc21` (stereo not drawn), the Potency was inconclusive [activator, single point].
With `Cn1c2ccc(F)cc2c2nc3ccccc3nc21` the Potency was inconclusive [activator, single point].
In the case of `COc1ccccc1C(=O)COC(=O)CN1C(=O)c2ccccc2C1=O`, the Potency is reported as inconclusive [activator, single point].
In the case of `CC(=O)Nc1ccc(NC(=O)c2cc(-n3cnnc3)ccc2Cl)cc1`, the Potency is reported as inconclusive [activator, single point].
For `COCCn1c(=NC(=O)CSC(C)=O)sc2cc(OC)ccc21`, the Potency was inconclusive [activator, partial curve].
For `O=C1N[C@@H](Cc2ccccc2)COC(=O)[C@H](Cc2ccc(F)cc2)C/C=C\C[C@H]1CC(=O)N(CCO)Cc1ccccc1`, the Potency was inconclusive [activator, partial curve, poor fit].
With `Fc1ccccc1N1CCN(Cc2nnc(-c3ccc4c(c3)OCO4)o2)CC1` the Potency was inconclusive [activator, partial curve].
For `CCc1c(Cl)nc(N)nc1Nc1ccccc1C`, the Potency was inconclusive [activator, partial curve].
With `COc1ccccc1CNC(=O)CSc1nc(-c2ccccc2)cn1N` the “growth rescue (activation)” value was inactive: 17.7%.
With `CCCCOc1ccc(-c2nnc(-c3ccco3)o2)cc1` the Potency was inconclusive [activator, partial curve].
With `COC(=O)c1nnn(-c2cccc(C)c2)c1N` the Potency was inconclusive [activator, single point].
For `CCCSc1nnc(Nc2ccccc2C)s1`, the Potency was inconclusive [activator, single point].
For `CC(/C=C1\SC(=S)N(NC(=O)c2ccncc2)C1=O)=C\c1ccccc1`, the Potency was inconclusive [activator, single point].
In the case of `COc1ccc(-c2nc(C)ncc2-c2ccc(Cl)cc2)c(O)c1`, the Potency is reported as inconclusive [activator, single point].
With `COc1ccccc1C(=O)C1CCCN(C(=O)c2ccccc2Cl)C1` (stereo not drawn) the Potency was inconclusive [activator, partial curve].
For `Nc1ccc(C(=O)Nc2nc3ccccc3s2)cc1`, the Potency was inconclusive [activator, partial curve, poor fit].
For `CN(Cc1ccc(F)cc1Cl)S(=O)(=O)c1cccs1`, the Potency was inconclusive [activator, partial curve].
For `Cc1nc(Cl)sc1C(=O)Nc1cc(F)cc(F)c1`, the Potency was active: 11.2 µM.
For `S=c1[nH]nc(Cc2sc(-c3ccccc3)nc2-c2ccccc2)o1`, the Potency was active: 12.6 µM.
In the case of `Cc1c(C(=O)NCc2ccc(F)cc2)sc(=O)n1Cc1ccc(Cl)c(Cl)c1`, the Potency is reported as inconclusive [activator, single point].
In the case of `COc1ccc(Cc2nnc(NC(=O)c3ccccc3F)s2)cc1`, the Potency is reported as inconclusive [activator, partial curve].
In the case of `CCOC(=O)c1c(-c2ccccc2)csc1NC(=S)N(CC)CC`, the Potency is reported as inconclusive [activator, partial curve].
For `CCCCN(CC)CCCNC(=O)Cn1nc(CC)n2c(cc3sccc32)c1=O`, the “growth rescue (activation)” value was inactive: 5.75%.
For `COc1ccc([C@@H]2C[C@@H](c3ccccc3)Oc3cc(OC)cc(OC)c32)cc1`, the Potency was inconclusive [activator, partial curve].
With `Cc1cc(N2CCOCC2)nc(SCc2c(Cl)cccc2Cl)n1` the growth rescue (activation) was inconclusive: 85.7% [activator].
With `COc1ccc(Nc2ncnc3c2cnn3-c2cc(Cl)ccc2C)cc1OC` the Potency was inconclusive [activator, partial curve, poor fit].
In the case of `CCOc1ccc(OCCOCCn2c(-c3ccc(Cl)cc3)nc3ccccc3c2=O)cc1`, the “growth rescue (activation)” value is reported as inactive: 0%.
For `COc1ccc(Cl)cc1NC(=O)c1ccc(CN2C(=O)CCn3nc(C)cc32)cc1`, the “growth rescue (activation)” value was inactive: 22.5%.
For `COc1ccccc1/C=C1\SC(=O)N(CC(=O)NCCCn2ccnc2)C1=O`, the “growth rescue (activation)” value was inactive: -8.35%.
For `COc1ccccc1C(=O)NCC(c1cccnc1)N(C)C` (stereo not drawn), the “growth rescue (activation)” value was inactive: -19%.
In the case of `Cc1cc(=O)oc2cc(OC(C)C(=O)NCC3CCC(C(=O)O)CC3)ccc12` (stereo not drawn), the Potency is reported as inconclusive [activator, full curve].
With `O=C(N/N=C/C(Cl)=C/c1ccccc1)c1ccccc1F` the “growth rescue (activation)” value was inactive: -12%.
With `CCC(C)[C@@H](C(=O)Nc1ccc(OC)c(OC)c1)N1Cc2ccccc2C1=O` (stereo partly drawn) the Potency was inconclusive [activator, partial curve].
For `CSc1nc2ccc(NS(=O)(=O)c3ccc(Cl)s3)cc2s1`, the Potency was inconclusive [activator, partial curve].
With `O=C(O)Cc1cc2c(s1)CCCCC2` the Potency was active: 12.6 µM.
For `CS(=O)(=O)c1ncc(Cl)c(C(=O)N2CCN(c3cccc(Cl)c3)CC2)n1`, the Potency was active: 12.6 µM.
With `COc1ccccc1-n1cc(-c2ccccc2)c2c(=S)nc[nH]c21` the “growth rescue (activation)” value was inactive: 6.95%.
For `CCn1nc(C)c(CNC(=O)c2cc(COc3ccc(F)cc3Cl)on2)c1C`, the Potency was inconclusive [activator, partial curve].
With `CCOC(=O)/C(=C/c1ccc(OC(=O)c2ccccc2)cc1)C(C)=O` the growth rescue (activation) was inconclusive: -93.6% [activator].
For `CCOC(=O)c1cc(-c2ccccc2)sc1NC(=O)C(C)(C)C`, the “growth rescue (activation)” value was inactive: 9.55%.
With `COCC(=O)Nc1nc2n(n1)C(c1ccc(OC)cc1)CC(c1ccc(OC)cc1)N2` (stereo not drawn) the “growth rescue (activation)” value was inactive: -8.17%.
With `OC(c1cccc(Cl)c1)c1nc(-c2ccccc2)cs1` (stereo not drawn) the Potency was active: 14.1 µM.
With `O=C(Nc1ccccc1)ON=C1c2ccccc2-c2ccccc21` the Potency was inconclusive [activator, single point].
In the case of `Cc1c(C(=O)NCc2ccccc2Cl)sc2nc3n(c(=O)c12)CCCC3`, the Potency is reported as inconclusive [activator, partial curve].
For `O=C(CCCOc1ccc(Cl)cc1Cl)Nc1cccnc1`, the Potency was inconclusive [activator, single point].
In the case of `COc1ccc(CCN2C(=O)C=CC2=O)cc1OC`, the growth rescue (activation) is reported as inconclusive: -92.4% [activator].
In the case of `Brc1cccc(-c2nc3ccc(Br)cn3c2Cc2ccccc2)c1`, the Potency is reported as active: 28.2 µM.
With `CC(C)Cn1cc(NC(=O)NCc2ccc(Cl)cc2)c2ccccc2c1=O` the Potency was inconclusive [activator, partial curve].
With `COc1ccc(C(C)=O)cc1COC(=O)CCCN1C(=O)c2ccccc2C1=O` the Potency was inconclusive [activator, single point].
In the case of `CCOc1ccc(Nc2nc(N)c(C(=O)c3ccccc3Cl)s2)cc1`, the Potency is reported as active: 35.5 µM.
With `O=Cc1cccc(OCc2cccc3ccccc23)c1` the Potency was active: 14.1 µM.
With `O=C(NC(=S)Nc1ccccc1Br)C1CC1` the Potency was active: 12.6 µM.
In the case of `S=C(NCc1ccccc1)N1CCc2ccccc2C1`, the Potency is reported as active: 11.2 µM.
In the case of `Fc1ccc(Nc2nc(SCc3cccc(F)c3)nc3ccccc23)cc1`, the growth rescue (activation) is reported as inconclusive: -88.3% [activator].
In the case of `COCOCCn1cc(CN2CCS(=O)(=O)N(Cc3ccc(-c4ccc(F)cc4)cc3)C(CC(C)C)C2=O)nn1` (stereo not drawn), the Potency is reported as inconclusive [activator, single point].
With `Cc1noc(C)c1C(=O)Nc1ccccc1N1CCOCC1` the “growth rescue (activation)” value was inactive: 18.4%.
In the case of `O=C(c1cc(-c2ccc(Br)cc2)n[nH]1)N1CCN(S(=O)(=O)c2ccc(Br)s2)CC1`, the “growth rescue (activation)” value is reported as inactive: 24.6%.
For `Cc1c(C(=O)N(Cc2ccccc2)Cc2cccs2)cnn1-c1ccc(Cl)cc1`, the Potency was inconclusive [activator, single point].
In the case of `COc1ccc(-c2cn3c(n2)sc2cc(C(=O)Nc4ccc(F)cc4)ccc23)cc1`, the Potency is reported as inconclusive [activator, partial curve].
In the case of `Cc1ccc(Cl)cc1NC(=O)c1csnn1`, the Potency is reported as inconclusive [activator, partial curve, poor fit].
With `CC(=O)OC1=C(C(C)=O)N(Cc2ccccc2)S(=O)(=O)c2ccccc21` the Potency was active: 35.5 µM.
In the case of `COc1ccc(/C(C#N)=C/c2ccccn2)cc1`, the Potency is reported as inconclusive [activator, full curve, poor fit].
